The target of the experiment is T1, hCD40-Fc (human, UniProt P25942 part only).
T1 construct: Immobilized on the sensor chip; construct not described; not shown: Fc part of hCD40-Fc not described
Kind of experiment: SPR; dAb-Fc analyte on immobilized hCD40-Fc; avidity-influenced KDapparent. For orientation: SPR reads the build-up and loss of mass on a sensor chip optically.

Bounds are passed on as bounds.

Chain of hCD40-Fc (P25942 21-193): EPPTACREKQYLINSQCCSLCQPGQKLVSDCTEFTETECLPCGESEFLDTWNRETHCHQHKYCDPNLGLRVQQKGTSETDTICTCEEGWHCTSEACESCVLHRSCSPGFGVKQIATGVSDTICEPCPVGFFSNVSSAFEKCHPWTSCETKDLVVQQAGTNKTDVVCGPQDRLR

B1: 3h56-269-CT (Fc fusion)
chain: EVQLLESGGGLVQPGGSLRLSCAASGFTFRDYEMWWVRQAPGKGLERVSAINPQGTRTYYADSVKGRFTISRDNSKNTLYLQMNSLRAEDTAVYYCAKLPFRFSDRGQGTLVTVSSAST[left out - human IgG1 Fc with changes]
notes: The rows marked (UCOE-CHO) are the same protein expressed and purified from UCOE-CHO cells
B1: the Kd is less than 1 nM.

B2: 3h56-269-IgG1-D265A (Fc fusion)
chain: EVQLLESGGGLVQPGGSLRLSCAASGFTFRDYEMWWVRQAPGKGLERVSAINPQGTRTYYADSVKGRFTISRDNSKNTLYLQMNSLRAEDTAVYYCAKLPFRFSDRGQGTLVTVSSAST[left out - human IgG1 Fc with D265A (EU numbers)]
On to B2, for which the Kd is less than 1 nM.

B3: 3h56-269-IgG4.1 (Fc fusion)
chain: EVQLLESGGGLVQPGGSLRLSCAASGFTFRDYEMWWVRQAPGKGLERVSAINPQGTRTYYADSVKGRFTISRDNSKNTLYLQMNSLRAEDTAVYYCAKLPFRFSDRGQGTLVTVSSAST[left out - human IgG4 Fc with S228P (EU numbers)]
notes: also called BMS-986090
Turning to B3, the Kd was less than 1 nM.

(Values after patent US20200299400A1 (published 2020).)
